About 200 (0.44%) of roughly 45,000 compounds were called active. Not shown: some 7% with an inconclusive outcome. Calls follow the shape of the dose curve; as a rule, active = well fitted activation curve with a large enough effect; inconclusive = small, poorly fitted or top-dose-only effect; inactive = no such curve, though single readings can be large or run the other way. The list shows a part of the results.
test: qHTS of TDP-43 Inhibitors: NCGC Sytravon Library Screen; details: yeast TDP-43 toxicity rescue, BacTiter-Glo growth, 24 h; series mostly up to 46.1 µM; growth rescue (activation): at the top concentration; also: 0% is about no effect; nearly all actives have a fitted effect of over 55% in size
From the text: The goal of this project is to identify new chemical probes capable of reversing the toxicity associated with TDP-43 which is associated with frontotemporal lobar degeneration and amyotrophic lateral sclerosis. These compounds will provide a complementary approach to deciphering the tangled mechanisms of toxicity and protection that we have uncovered through genome-wide genetic screens and are beginning to uncover in a large-scale proteomics analysis with mass spectroscopy. To this end, a miniaturized assay was developed to be screened against the Molecular Libraries Small Molecule Repository (MLSMR) to discover TDP-43 inhibitors. Please note that in the set-up this yeast-based assay compounds that inhibit as TDP-43, have a read-out as activators. NIH Chemical Genomics Center [NCGC] NIH Molecular Libraries Probe Centers Network [MLPCN] Assay Submitter (PI): Susan Lindquist, Whitehead Institute/MIT MLPCN Grant: R21 NS060957
Dispense 2.5 microL yeast galactose medium per 1536-well plate, pin compound, dispense 2.5 microL TDP-43 expressing yeast in galactose medium at OD600=0.02 (pregrown in raffinose medium to mid-log phase) per well, incubate for 24 hr at 30 deg C, and cell growth will be measured using 5 microL of Bactiter/Glo reagent to entire plate and read using Luminescence Protocol in ViewLux.

| SMILES | growth rescue (activation) |
| --- | --- |
| Cc1nc(N2CCCC2C(=O)O)c2oc3ccccc3c2n1 (stereo not drawn) | inactive: 5.07% |
| Cc1cc(NC(=O)CCN2C(=O)/C(=C/c3ccccc3Cl)SC2=S)no1 | inactive: 14% |
| COc1ccc(CNc2cc(C)ccn2)cc1 | inactive: -15.7% |
| C=CCc1c(C)[nH]c(=O)[nH]c1=O | inactive: 7.48% |
| O=C(CCN1C(=O)C2C3C=CC(C3)C2C1=O)NCCN1CCCc2ccccc21 (stereo not drawn) | inactive: 13.1% |
| CCOC(=O)c1c(-c2ccccc2)csc1NC(=O)c1cc(S(=O)(=O)N2CCOCC2)ccc1C | inactive: 21.5% |
| CCOc1cc(C)nc(N2CCC(C(=O)NC3CC3)CC2)n1 | inactive: 4.88% |
| Cc1nc(NNC(=O)c2ccccc2)cc(-c2ccccc2)n1 | inactive: -11.2% |
| Cc1ccccc1OCC(=O)NCCc1nc2ccccc2[nH]1 | inactive: -2.59% |
| O=c1cc(-c2ccccc2)nc(/C=C/c2ccccc2)[nH]1 | inactive: 35.9% |
| O=C(NCC(c1cccnc1)N1CCOCC1)NC1CCCCC1 (stereo not drawn) | inactive: 13.8% |
| CCS(=O)(=O)c1oc(-c2ccc(F)cc2)nc1S(=O)(=O)c1ccccc1 | inactive: 1.32% |
| O=C(O)c1[nH]c2ccccc2c1C(c1cc(Cl)cc([N+](=O)[O-])c1O)c1c(C(=O)O)[nH]c2ccccc12 | inactive: 12.4% |
| CC(=O)N[C@@H](Cc1c[nH]c2ccccc12)C(=O)OCc1ccc(C#N)cc1 | inactive: 5.77% |
| COc1ccc(NC(=O)CCSc2ccc3ccccc3n2)cc1 | inactive: 19.7% |
| Cc1nc(SCC(=O)Nc2nsc(-c3ccc(C(C)(C)C)cc3)n2)c2c3c(sc2n1)CCCC3 | inactive: -5.26% |
| O=c1c2ccccc2[nH]c(=S)n1Cc1ccccc1Cl | inactive: 13.4% |
| NC(=O)c1ccsc1NC(=O)COC(=O)c1cccnc1Cl | inactive: 11.4% |
| Cc1ccc(NC(=O)C2(C)CCN2Cc2cccc3c2OCO3)cc1O (stereo not drawn) | inactive: 0.099% |
| Cc1ccc2c(C(=O)CN3CCCC(C)C3)c(C)[nH]c2c1 (stereo not drawn) | inactive: 15.5% |
| Cc1ccc(CN2C(=O)CSc3ccc(C(=O)NC4CC4)cc32)cc1 | inactive: 5.63% |
| COc1ccc(OC)c(N(CC(=O)NC2CC3CCC2C3)S(=O)(=O)c2ccccc2)c1 (stereo not drawn) | inactive: 7.37% |
| CC(C)c1ccccc1-n1c(SCc2cc(=O)oc3ccc4ccccc4c23)nnc1-c1cccnc1 | inactive: -1.92% |

| SMILES | growth rescue (activation) |
| --- | --- |
| Cn1c(NCCN2CCOCC2)nc2c1c(=O)n(Cc1cccc(Cl)c1)c(=O)n2C | inactive: 6.48% |
| CC/C(=N\NC(=S)Nc1cccc(C)c1)c1ccccc1 | inactive: 11.1% |
| CCOC(=O)C1(Cc2cccc(OC)c2)CCN(C2CCOCC2)CC1 | inactive: 4.29% |
| CN(C)/N=C/c1cn(-c2ccccc2)nc1-c1cccnc1 | inactive: 16.7% |
| C/C(=N\NC(=O)c1ccccc1)c1cccc(Br)c1 | inactive: 0.419% |
| OCc1ccccc1-c1cnc2sc(NCc3ccc(F)cc3)nn12 | inactive: 5% |
| CCCCc1ccc(NC(=O)N[C@@H](C)C(=O)O)cc1 | inactive: 12.8% |
| CC(C)C1N=C2c3ccccc3N=C(SCC(=O)c3ccc(O)c(O)c3)N2C1=O (stereo not drawn) | inactive: 12% |
| Cc1sc(NC(=O)CN(Cc2ccc(F)cc2)C(=O)C(C)(C)C)c(C(N)=O)c1C | inactive: 11.2% |
| Cc1cccc(NC(=O)c2csnn2)n1 | inactive: 2.63% |
| O=C(Nc1ccccc1Cl)c1cc2ccccc2o/c1=N\O | inactive: -16% |
| CN(C)c1ccc(N2CC(C)(C)C2=O)cc1 | inactive: 5.74% |
| COC(=O)CNc1cc(S(=O)(=O)N2CCCCC2)ccc1Oc1cccc(C)c1 | inactive: -9.3% |
| COC(=O)c1ccc(N=C2SCC(=O)N2C)cc1 | inactive: 25.6% |
| CCOc1ccc(/C(O)=C2\C(=O)C(=O)N(CCN(C)C)C2c2cc(OC)ccc2OC)cc1Cl (stereo not drawn) | inactive: 13.8% |
| CCOc1ccc(N2CC(C(=O)N3CCCC3)CC2=O)cc1 (stereo not drawn) | inactive: 0.717% |
| O=[N+]([O-])c1ccc(CS(=O)(=O)N2CCN(c3ccccc3)CC2)cc1 | inactive: 0.13% |
| O=C(NCC1CCCN(Cc2ccc3nonc3c2)C1)c1ccc(F)cc1 (stereo not drawn) | inactive: -5.48% |
| O=C(NC(Cc1ccccc1)C(=O)O)/C(=C\c1ccc(Br)cc1)NC(=O)c1ccc(Br)o1 (stereo not drawn) | inactive: 14.4% |
| CCCNC(=O)C1(C)CCN(Cc2ccc3ccccc3c2Br)C1 (stereo not drawn) | inactive: 3.48% |
| COc1ccc(-c2nc3ccc([N+](=O)[O-])cc3o2)cc1 | inactive: -6.56% |
| CC(=O)N1CC(=O)N=C1SCC(=O)Nc1nc(-c2ccccc2)c(-c2ccccc2)s1 | inactive: -6.49% |
| Cc1cc([N+](=O)[O-])ccc1NC(=O)CSc1nccc(=O)[nH]1 | inactive: 0.222% |

| SMILES | growth rescue (activation) |
| --- | --- |
| COC(=O)c1ccc(N(CC(=O)NC2CCCCC2)C(=O)CNC(=O)c2ccco2)cc1 | inactive: 7.8% |
| CCc1nnc(NC(=O)CSc2nnc3c(C)cc4c(C)ccc(C)c4n23)s1 | inactive: -11.6% |
| O=C(COc1ccc([N+](=O)[O-])cc1)Nc1ccc(C(=O)Nc2ccccc2C(=O)O)cc1 | inactive: 3.64% |
| NCC(c1ccccc1)c1c[nH]c2ccccc12 (stereo not drawn) | inactive: 13.8% |
| Cc1[nH]c2ccccc2c1C(=O)CSc1ccccc1 | inactive: 24.4% |
| COc1cc(/C=N/NC(=O)CCc2n[nH]c(=O)[nH]c2=O)cc(OC)c1OC | inactive: 13.2% |
| Cc1ccc(C)c(NC(=S)N(Cc2cccc(Br)c2)CC2CCC(C(=O)O)CC2)c1 (stereo not drawn) | inactive: -6.86% |
| CCNC(=O)CC1C(=O)N(c2ccc(F)cc2)C(=O)N1CCc1sccc1C (stereo not drawn) | inactive: 11.3% |
| CCCOc1cccc(C(=O)NCCNC(=O)c2ccccn2)c1 | inactive: 3.06% |
| N#Cc1ccccc1S(=O)(=O)N1CCN(CC(=O)Nc2ccnn2C2CCCC2)CC1 | inactive: 31.8% |
| Cc1cc(C)cc(NC(=O)c2ccc([N+](=O)[O-])o2)c1 | inactive: -93.5% |
| O=C(CCn1cnc2ccccc21)N/N=C/c1ccc(O)cc1 | inactive: 1.87% |
| CC(=O)NC1=NN(C(C)=O)C(C)(c2ccc(C)o2)S1 (stereo not drawn) | inactive: 8.92% |
| Cc1ccc(C)n1-c1nnc(N2CCCC(C(=O)Nc3ccccc3Br)C2)s1 (stereo not drawn) | inactive: 8.16% |
| Cc1ccc(NC(=O)CN(C)CC(=O)NC2CCCc3ccccc32)cc1 (stereo not drawn) | inactive: -23.4% |
| Oc1[nH]c2ccc(Br)cc2c1N=NC(=S)NCC1CCCO1 (stereo not drawn) | inactive: 14% |
| CC(C)(C)c1ccc(/C=C2\SC(=O)N(CCNC(=O)c3cccc(S(=O)(=O)N4CCOCC4)c3)C2=O)cc1 | inactive: 3.64% |
| COc1ccc(/C=N/NC(=O)C(C)Sc2ccccn2)cc1[N+](=O)[O-] (stereo not drawn) | inactive: -3.95% |
| CC1CCN(C(=O)CSc2nc(N)c3c4c(sc3n2)CN(C)CC4)CC1 | inactive: 14.3% |
| CCOc1ccc(N2CC(C(=O)Nc3ccccc3C(=O)N3CCOCC3)CC2=O)cc1 (stereo not drawn) | inactive: 1.76% |
| COCCCNC(=O)c1cn(C)c(=O)c2c1c1ccccc1n2C | inactive: 8.38% |
| CC(SCc1ccccc1)C(=O)N/N=C/c1cccs1 (stereo not drawn) | inactive: 18.8% |

From PubChem BioAssay AID1347073 (National Center for Advancing Translational Sciences (NCATS), 2019)
